# Test results as given in the supplement of paper PMC10126150.
# Values marked as one replicate rest on one cluster of the flow cell; about a third of the high ones do not repeat.
# System: ATP
# Assay: switch fluorescence ratio, 500 uM ATP over buffer (Cy3 cluster intensity, sum of 5 cycles each) (fold (ratio)); higher = stronger signal-on switching upon ATP binding; sequences stand for … in TCGTCGGCAGCGTCAGATGTGTATAAGAGACAGTTTTTTTTTTTTTTTTTTTTTTTTT…TC
# Conditions: aptamer strand: ATP DNA aptamer (quencher-CACCTGGGGGAGTATTGCGGAGGAAGG + anchor), 100 nM annealed; ATP concentration: 500 uM; one replicate
# Summary of the method: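 Imaging in selection buffer was followed by imaging after 15 min with 500 uM ATP at 22 °C, for Cy3-labelled switching-strand clusters annealed to 100 nM quencher-labelled ATP aptamer on a modified Illumina MiSeq flow-cell. Five of these buffer/ATP cycles ran, separated by NaOH stripping and re-annealing. The fluorescence ratio per cluster is summed target-cycle over summed buffer-cycle Cy3 intensity, averaged per switch-domain sequence; clusters outside 100-1000 RFU were removed.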
# 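Note: ATP exposure 15 min at 22 °C before imaging.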
row,Sequence,switch fluorescence ratio
1,TAAGGACGA,0.965
2,TAAGGATCTT,1
3,TAAGGGCGAA,1.01
4,TAAGTAATGC,0.999
5,TAAGTAGTGA,1.05
6,TAAGTATG,0.984
7,TAAGTCAGAA,0.969
8,TAAGTCCGAC,1.04
9,TAAGTCGTCT,1.01
10,TAAGTGAGAT,0.973
11,TAAGTGGTTA,0.992
12,TAAGTTAACC,0.942
13,TAAGTTCAGT,1.01
14,TAAGTTCTAG,0.946
15,TAATAAATTG,1.01
16,TAATACGTT,0.999
17,TAATAGGGTA,1.04
18,TAATAGTGAG,0.981
19,TAATATAGT,0.962
20,TAATATGAAT,0.99
21,TAATATTGGT,0.97
22,TAATCACTCA,1.03
23,TAATCCAGGG,1
24,TAATCCAGGT,1.11
25,TAATCGCGA,1.02
26,TAATCGTAGG,0.982

row,Sequence,switch fluorescence ratio
1,TAATCTCCA,1.1
2,TAATCTGAAT,0.93
3,TAATGAAGCT,1.07
4,TAATGACTGC,1.02
5,TAATGCCAA,0.978
6,TAATGCCGAA,1.03
7,TAATGCTGCT,1.04
8,TAATGGCCAC,0.983
9,TAATGGGAAC,1.02
10,TAATGTACCC,1.14
11,TAATGTATCC,0.955
12,TAATGTCCCG,0.976
13,TAATTAAGC,0.997
14,TAATTAGAAC,1
15,TAATTATCG,0.992
16,TAATTATTAC,1.03
17,TAATTCCAAT,0.983
18,TAATTCTCA,1.01
19,TAATTGAAAC,1.03
20,TAATTGACAA,1.09
21,TAATTGAGGA,1.01
22,TAATTGCAAG,0.916
23,TAATTGTTA,0.992
24,TACAAAACTC,1.05
25,TACAAAATAA,1.05
26,TACAAAGCAT,1.13

row,Sequence,switch fluorescence ratio
1,TACAATCAGG,1.12
2,TACAATCGGG,0.993
3,TACACCATTT,1.05
4,TACACCGTTA,1.07
5,TACACGCAGA,1.1
6,TACACGTGGG,1.07
7,TACACTTTAC,2.08
8,TACAGAAAGG,1.02
9,TACAGAGC,0.977
10,TACAGAGCGG,1.03
11,TACAGATATC,0.972
12,TACAGATCGT,0.959
13,TACAGCT,1.04
14,TACAGCTCGA,1.02
15,TACAGCTTCG,0.983
16,TACAGGTGAA,1.78
17,TACAGTGGGT,0.997
18,TACATAGCCG,1.15
19,TACATATTAG,1
20,TACATCGACT,0.975
21,TACATCTCCT,0.97
22,TACATGCTT,1.07
23,TACATGGGGG,1.03
24,TACATTAAAC,0.973
25,TACATTATAC,1.21
26,TACATTATGA,1.04

row,Sequence,switch fluorescence ratio
1,TACATTCAGC,1.01
2,TACATTCGTG,1.02
3,TACATTGCGG,0.986
4,TACATTGGGG,1.01
5,TACCAGCTTT,1.01
6,TACCAGGACG,0.942
7,TACCCAGTTC,0.997
8,TACCCAGTTT,1.08
9,TACCCGGAGC,1.54
10,TACCCTCAAC,1.58
11,TACCCTGGTT,1.09
12,TACCGCGGCA,0.988
13,TACCGCTGT,1.11
14,TACCGTCTCC,1.32
15,TACCGTGATA,1.08
16,TACCGTGTAC,1.01
17,TACCTAGCGG,0.997
18,TACCTAGCGT,1
19,TACCTAGGGA,1.39
20,TACCTATTAC,1.11
21,TACCTCTTAG,1.01
22,TACCTGATCG,1.12
23,TACCTGGCGC,1.03
